According to the supplement of paper PMC4604168 (melanoma cell lines):
The list shows a part of the results. Single values are uncertain, as repeats are few or missing.

Legend:
Assay in all cases: cell count relative to DMSO control; melanoma cells; higher = more viable cells
Conditions in all cases: library dose: standard library concentration; 72 h
SkMel28 = system: SkMel28
SkMel2 = system: SkMel2
SkMel30 = system: SkMel30
SkMel5 = system: SkMel5
UACC257 = system: UACC257
UACC62 = system: UACC62
WM115 = system: WM115
WM1716 = system: WM1716
WM1745 = system: WM1745
WM3526 = system: WM3526
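Also: cells treated in 1,536-well plates, then fixed and DAPI-stained, with nuclei counted from automated high-throughput microscope images.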

Row | Compound | cell count (SkMel28) | cell count (SkMel2) | cell count (SkMel30) | cell count (SkMel5) | cell count (UACC257) | cell count (UACC62) | cell count (WM115) | cell count (WM1716) | cell count (WM1745) | cell count (WM3526)
1 | CC1(C)CCC(c2ccc(Cl)cc2)=C(CN2CCN(c3ccc(C(=O)NS(=O)(=O)c4ccc(N[C@H](CCN5CCOCC5)CSc5ccccc5)c(S(=O)(=O)C(F)(F)F)c4)cc3)CC2)C1 + Cn1c(=O)n(-c2ccc(C(C)(C)C#N)cc2)c2c3cc(-c4cnc5ccccc5c4)ccc3ncc21 [NVP-BEZ235] (first compound 2 µM, partner dose 0.02 µM) | 38.5% | 44% | 46.7% | 61.2% | 43.7% | 55.5% | 30.3% | 52.8% | 4.31% | 71.5%
2 | O=C(/C=C/c1cccnc1)NCCCCC1CCN(C(=O)c2ccccc2)CC1 + CN1CCN(c2ccc3nc(-c4c(N)c5c(F)cccc5[nH]c4=O)[nH]c3c2)CC1 [Dovitinib] (first compound 0.05 µM, partner dose 0.5 µM) | 52.1% | 10.4% | 81.7% | 81.6% | 79.4% | 67.3% | 64.2% | 51.5% | 52.2% | 71.3%
3 | CC1(C)CCC(c2ccc(Cl)cc2)=C(CN2CCN(c3ccc(C(=O)NS(=O)(=O)c4ccc(N[C@H](CCN5CCOCC5)CSc5ccccc5)c(S(=O)(=O)C(F)(F)F)c4)cc3)CC2)C1 + Cc1cc(Nc2cc(N3CCN(C)CC3)nc(/C=C/c3ccccc3)n2)n[nH]1 [ENMD2076] (first compound 2 µM, partner dose 0.2 µM) | 69.5% | 64.9% | 44.4% | 70.7% | 37.4% | 60.9% | 51.8% | 60% | 13.8% | 71.3%
4 | O=C(/C=C/c1cccnc1)NCCCCC1CCN(C(=O)c2ccccc2)CC1 + CN(c1ncccc1CNc1nc(Nc2ccc3c(c2)CC(=O)N3)ncc1C(F)(F)F)S(C)(=O)=O [PF562271] (first compound 0.05 µM, partner dose 0.4 µM) | 78.2% | 11% | 114% | 86% | 82.4% | 57.7% | 74.2% | 55.5% | 80.8% | 106%
5 | CC1(C)CCC(c2ccc(Cl)cc2)=C(CN2CCN(c3ccc(C(=O)NS(=O)(=O)c4ccc(N[C@H](CCN5CCOCC5)CSc5ccccc5)c(S(=O)(=O)C(F)(F)F)c4)cc3)CC2)C1 + C=CCn1c(=O)c2cnc(Nc3ccc(N4CCN(C)CC4)cc3)nc2n1-c1cccc(C(C)(C)O)n1 [MK1775] (first compound 2 µM, partner dose 0.1 µM) | 24.8% | 60.1% | 52.5% | 47.1% | 44.6% | 45.1% | 41.1% | 52.3% | 1.8% | 75.5%
6 | O=C(/C=C/c1cccnc1)NCCCCC1CCN(C(=O)c2ccccc2)CC1 + Cn1cnc2c(F)c(Nc3ccc(Br)cc3Cl)c(C(=O)NOCCO)cc21 [selumetinib] (first compound 0.05 µM, partner dose 0.075 µM) | 53.9% | 23.1% | 41.7% | 87.7% | 87.8% | 67.6% | 66% | 69.4% | 75.3% | 48.4%
7 | CC1(C)CCC(c2ccc(Cl)cc2)=C(CN2CCN(c3ccc(C(=O)NS(=O)(=O)c4ccc(N[C@H](CCN5CCOCC5)CSc5ccccc5)c(S(=O)(=O)C(F)(F)F)c4)cc3)CC2)C1 + C=CCNC1=C2C[C@@H](C)C[C@H](OC)[C@H](O)[C@@H](C)/C=C(\C)[C@H](OC(N)=O)[C@@H](OC)/C=C\C=C(/C)C(=O)NC(=CC1=O)C2=O [Tanespimycin] (first compound 2 µM, partner dose 0.01 µM) | 54.9% | 77.1% | 54.4% | 71.1% | 32.1% | 48.7% | 25% | 62.4% | 6.35% | 67.4%
8 | O=C(/C=C/c1cccnc1)NCCCCC1CCN(C(=O)c2ccccc2)CC1 + CC(C)C[C@H](NC(=O)[C@H](Cc1ccccc1)NC(=O)c1cnccn1)B(O)O [Bortezomib] (first compound 0.05 µM, partner dose 0.005 µM) | 22.2% | 3.16% | 28.9% | 32% | 83.1% | 70.6% | 29.5% | 15.6% | 15.2% | 22%
9 | CC1(C)CCC(c2ccc(Cl)cc2)=C(CN2CCN(c3ccc(C(=O)NS(=O)(=O)c4ccc(N[C@H](CCN5CCOCC5)CSc5ccccc5)c(S(=O)(=O)C(F)(F)F)c4)cc3)CC2)C1 + CC(=O)c1c(C)c2cnc(Nc3ccc(N4CCNCC4)cn3)nc2n(C2CCCC2)c1=O [palbociclib] (first compound 2 µM, partner dose 0.2 µM) | 39.9% | 56.6% | 47.1% | 34.4% | 35% | 31.4% | 49.8% | 26.1% | 9.65% | 56%
10 | CC1(C)CCC(c2ccc(Cl)cc2)=C(CN2CCN(c3ccc(C(=O)NS(=O)(=O)c4ccc(N[C@H](CCN5CCOCC5)CSc5ccccc5)c(S(=O)(=O)C(F)(F)F)c4)cc3)CC2)C1 + NC(=O)Nc1cc(-c2cccc(F)c2)sc1C(=O)N[C@H]1CCCNC1 [AZD7762] (first compound 2 µM, partner dose 0.1 µM) | 21.1% | 74.6% | 69% | 83.9% | 30.7% | 57% | 48.8% | 29.3% | 3.1% | 65%
11 | O=C(/C=C/c1cccnc1)NCCCCC1CCN(C(=O)c2ccccc2)CC1 + CC1(C)NC(=O)N(c2ccc([N+](=O)[O-])c(C(F)(F)F)c2)C1=O [nilutamide] (first compound 0.05 µM, partner dose 5 µM) | 129% | 24.4% | 102% | 129% | 97% | 80.1% | 97.9% | 89.9% | 98.4% | 96.6%
12 | Cc1ccc(Nc2nccc(N(C)c3ccc4c(C)n(C)nc4c3)n2)cc1S(N)(=O)=O [Pazopanib] + Clc1ccc(Nc2nnc(Cc3ccncc3)c3ccccc23)cc1 [vatalanib] (first compound 2 µM, partner dose 10 µM) | 85.2% | 81% | 67.1% | 62.2% | 69.9% | 61.7% | 86.5% | 76.3% | 77.4% | 72.9%
13 | O=C(/C=C/c1cccnc1)NCCCCC1CCN(C(=O)c2ccccc2)CC1 + C[C@@H](Oc1cc(-c2cnn(C3CCNCC3)c2)cnc1N)c1c(Cl)ccc(F)c1Cl [Crizotinib] (first compound 0.05 µM, partner dose 1 µM) | 60.5% | 16.6% | 84.9% | 92.3% | 96.9% | 82.5% | 67.7% | 76.2% | 71.4% | 81.3%
14 | O=C(/C=C/c1cccnc1)NCCCCC1CCN(C(=O)c2ccccc2)CC1 + C#Cc1cccc(Nc2ncnc3cc(OCCOC)c(OCCOC)cc23)c1 [erlotinib] (first compound 0.05 µM, partner dose 4 µM) | 54.8% | 21.8% | 80.7% | 67.7% | 98% | 43.1% | 64.9% | 81% | 42.6% | 70.2%
15 | CC1(C)CCC(c2ccc(Cl)cc2)=C(CN2CCN(c3ccc(C(=O)NS(=O)(=O)c4ccc(N[C@H](CCN5CCOCC5)CSc5ccccc5)c(S(=O)(=O)C(F)(F)F)c4)cc3)CC2)C1 + COc1cc2c(Oc3ccc4[nH]c(C)cc4c3F)ncnc2cc1OCCCN1CCCC1 [cediranib] (first compound 2 µM, partner dose 2 µM) | 79.4% | 90.4% | 65.6% | 103% | 38.4% | 91.4% | 78% | 62.3% | 0.695% | 87.6%
16 | Cc1ccc(Nc2nccc(N(C)c3ccc4c(C)n(C)nc4c3)n2)cc1S(N)(=O)=O [Pazopanib] + C[C@]1(c2nc3c(C(N)=O)cccc3[nH]2)CCCN1 [Veliparib] (first compound 2 µM, partner dose 7 µM) | 52.3% | 72.3% | 68.9% | 54.4% | 80.7% | 54.9% | 66.7% | 76.4% | 79.8% | 67.9%
17 | O=C(/C=C/c1cccnc1)NCCCCC1CCN(C(=O)c2ccccc2)CC1 + CN(NC(=O)CC(=O)NN(C)C(=S)c1ccccc1)C(=S)c1ccccc1 [STA4783] (first compound 0.05 µM, partner dose 0.03 µM) | 7.54% | 27.9% | 88.6% | 62.1% | 113% | 41.7% | 15.4% | 75.1% | 44.9% | 105%
18 | O=C(/C=C/c1cccnc1)NCCCCC1CCN(C(=O)c2ccccc2)CC1 + C=CCn1c(=O)c2cnc(Nc3ccc(N4CCN(C)CC4)cc3)nc2n1-c1cccc(C(C)(C)O)n1 [MK1775] (first compound 0.05 µM, partner dose 0.1 µM) | 54.4% | 26.4% | 99.9% | 71.6% | 89.2% | 61.6% | 77.1% | 72.6% | 53.7% | 111%
19 | CC1(C)CCC(c2ccc(Cl)cc2)=C(CN2CCN(c3ccc(C(=O)NS(=O)(=O)c4ccc(N[C@H](CCN5CCOCC5)CSc5ccccc5)c(S(=O)(=O)C(F)(F)F)c4)cc3)CC2)C1 + O=C(CCCCCCC(=O)Nc1ccccc1)NO [vorinostat] (first compound 2 µM, partner dose 0.4 µM) | 43.1% | 51.9% | 58.5% | 64.6% | 36.6% | 66.2% | 82.1% | 62% | 4.29% | 55.3%
20 | O=C(/C=C/c1cccnc1)NCCCCC1CCN(C(=O)c2ccccc2)CC1 + CN(C)S(=O)(=O)c1ccc2c(c1)/C(=C/c1cc3c([nH]1)CCCC3)C(=O)N2 [SU6656] (first compound 0.05 µM, partner dose 2 µM) | 73.6% | 34.1% | 105% | 93.4% | 79% | 56.9% | 59.6% | 76.8% | 77.7% | 108%
